Consider two molecules from patent publication US20220411483A1 (Chugai, published 2022).

The target of assay [1] is T1, FcγRIa extracellular domain, His tag (human, UniProt P12314 16-292).
T1 construct: whole entry named; also called FcgRIa
The assay can be described thus: SPR, KD ratio.

In assay [2] the target is T2, FcγRIIa R type extracellular domain, His tag (human, UniProt P12318 34-217).
T2 construct: extracellular domain; also called FcgRIIaR
T2 sequence (looked up): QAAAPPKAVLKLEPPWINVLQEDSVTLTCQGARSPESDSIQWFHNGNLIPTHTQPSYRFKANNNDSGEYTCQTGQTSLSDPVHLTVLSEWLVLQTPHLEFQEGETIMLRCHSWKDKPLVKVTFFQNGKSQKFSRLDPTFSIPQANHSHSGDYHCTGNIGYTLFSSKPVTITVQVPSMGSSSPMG
The experiment in a line: SPR, KD ratio. Background: SPR reads the build-up and loss of mass on a sensor chip optically.

Assay [3] addresses T3, FcγRIIa H type extracellular domain, His tag (human, UniProt P12318 34-217).
T3 construct: extracellular domain; also called FcgRIIaH
T3 sequence (looked up): T2 sequence (looked up) with R134H
The assay can be described thus: SPR, KD ratio.

For assay [4], the target named is T4, FcγRIIIa V type extracellular domain, His tag (human, UniProt P08637 in part).
T4 construct: extracellular domain; also called FcgRIIIaV
The experiment in a line: SPR, KD ratio.

Assay [5] addresses T1, FcγRIa extracellular domain, His tag. The assay can be described thus: SPR kinetics, antibody captured.
Assay [6] concerns the target T2, FcγRIIa R type extracellular domain, …. The experiment in a line: SPR kinetics, antibody captured.
The target is the same in assay [7]. The experiment in a line: SPR, bound amount per captured antibody.
In assay [8] the target is T5, FcgRIa (human, UniProt P12314 16-292).
T5 construct: also called FcγRIa; FcγRI
The experiment in a line: SPR (Biacore).

In assay [9] the target is T6, FcgRIIaR (human, UniProt P12318 34-217).
T6 construct: extracellular domain; also called FcγRIIa R type; FcγRIIa (R type)
T6 sequence (looked up): T2 sequence (looked up)
The assay can be described thus: SPR (Biacore).

The target of assay [10] is T7, FcgRIIaH (human, UniProt P12318 34-217).
T7 construct: extracellular domain; also called FcγRIIa H type
T7 sequence (looked up): T2 sequence (looked up) with R134H
The experiment in a line: SPR (Biacore).

Assay [11] deals with T8, FcgRIIIaV (human, UniProt P08637 in part).
T8 construct: extracellular domain; also called FcγRIIIa V type
The experiment in a line: SPR (Biacore).

In assay [12] the target is T5, FcgRIa. The experiment in a line: SPR (Biacore). This is another data set of the same source.
T5 sequence (P12314 16-292): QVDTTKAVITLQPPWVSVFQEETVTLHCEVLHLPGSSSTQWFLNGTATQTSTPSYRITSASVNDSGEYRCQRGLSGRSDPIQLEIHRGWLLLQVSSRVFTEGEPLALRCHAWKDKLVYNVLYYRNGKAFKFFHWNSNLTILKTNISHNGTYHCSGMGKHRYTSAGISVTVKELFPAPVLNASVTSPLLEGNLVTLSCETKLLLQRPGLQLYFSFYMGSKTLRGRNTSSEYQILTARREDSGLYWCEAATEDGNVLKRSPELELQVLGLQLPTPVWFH
Assay [13] deals with T6, FcgRIIaR. The experiment in a line: SPR (Biacore). This is another data set of the same source.
Assay [14] concerns the target T7, FcgRIIaH. The assay can be described thus: SPR (Biacore). The source holds these as a separate data set.
For assay [15], the target named is T8, FcgRIIIaV. The assay can be described thus: SPR (Biacore). This is another data set of the same source.
T8 sequence (P08637 17-208 F176V): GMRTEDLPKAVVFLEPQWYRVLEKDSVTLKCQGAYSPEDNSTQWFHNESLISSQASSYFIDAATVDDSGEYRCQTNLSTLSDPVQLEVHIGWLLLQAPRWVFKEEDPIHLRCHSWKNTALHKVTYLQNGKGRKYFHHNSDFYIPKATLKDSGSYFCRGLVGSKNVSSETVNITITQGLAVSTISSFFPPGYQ
Assay [16] has as its target T6, FcgRIIaR. The assay can be described thus: SPR, amount bound per captured antibody.
Assay [17] concerns the target T6, FcgRIIaR. The assay can be described thus: SPR, amount bound per captured antibody. This is another data set of the same source.
In another assay the target is T9, human complement C1q (human, UniProt P02745; P02746; P02747).
T9 construct: Bought (PROSPEC or Calbiochem); also called human C1q
The assay can be described thus: SPR, C1q bound per antibody captured on Protein L. As to the method:
The interaction between an antibody and human C1q was analyzed using Biacore T200 (GE Healthcare). HBS-EP+ (GE Healthcare) was used as the running buffer, and the measurement temperature was set at 25° C. Chips produced by immobilizing Protein L (ACTIGEN or BioVision) onto Series S sensor Chip CM4 (GE Healthcare) by amine coupling were used.
The antibodies of interest were captured onto these sensor chips, and allowed to interact with human complement C1q (PROSPEC or Calbiochem) diluted in the running buffer. The amount of antibody binding was determined, and comparisons were made among the antibodies. However, since the amount of C1q bound depends on the amount of captured antibodies, corrected values obtained by dividing the amount of C1q bound by the amount of each antibody captured were compared. Furthermore, by reaction with 10 mM glycine-HCl, pH 1.5, the antibodies captured onto the sensor chips were washed, and the sensor chips were recycled and reused.

Numbering of substitutions follows the chain as printed. Like-named read-outs stand apart in the source and are kept apart here.

T1 sequence (P12314 16-292): as the sequence (P12314 16-292) above
Chain of human complement C1q (P02745 23-245 limits assumed, chain 1 of 3): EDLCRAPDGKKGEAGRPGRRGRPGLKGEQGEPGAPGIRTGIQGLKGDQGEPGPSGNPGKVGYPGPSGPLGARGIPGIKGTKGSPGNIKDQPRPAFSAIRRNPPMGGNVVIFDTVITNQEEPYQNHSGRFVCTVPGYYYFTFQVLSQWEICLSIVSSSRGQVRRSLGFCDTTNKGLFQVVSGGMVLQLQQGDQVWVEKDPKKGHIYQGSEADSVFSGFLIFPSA
Chain of human complement C1q (P02746 28-253 limits assumed, chain 2 of 3, further chain): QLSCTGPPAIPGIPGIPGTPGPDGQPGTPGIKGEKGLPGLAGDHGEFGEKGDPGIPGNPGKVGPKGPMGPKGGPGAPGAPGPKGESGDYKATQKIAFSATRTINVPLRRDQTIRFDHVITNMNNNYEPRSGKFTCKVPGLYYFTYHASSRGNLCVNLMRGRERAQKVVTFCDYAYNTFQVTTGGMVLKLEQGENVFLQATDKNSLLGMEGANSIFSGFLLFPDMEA
Chain of human complement C1q (P02747 29-245 limits assumed, chain 3 of 3, further chain): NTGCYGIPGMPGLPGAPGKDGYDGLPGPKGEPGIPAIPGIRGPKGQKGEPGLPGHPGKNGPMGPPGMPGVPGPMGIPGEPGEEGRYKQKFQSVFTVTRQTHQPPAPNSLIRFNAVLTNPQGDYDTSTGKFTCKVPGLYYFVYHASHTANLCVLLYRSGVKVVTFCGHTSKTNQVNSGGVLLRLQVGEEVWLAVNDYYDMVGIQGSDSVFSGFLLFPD

B1: IL6R-F648/IL6R-L (antibody, human IgG1, kappa)
heavy: QVQLQESGPGLVKPSETLSLTCAVSGHSISHDHAWSWVRQPPGEGLEWIGFISYSGITNYNPSLQGRVTISRDNSKNTLYLQMNSLRAEDTAVYYCARSLARTTAMDYWGEGTLVTVSS[human IgG1 constant region with P238D (EU numbers) not shown]
light: DIQMTQSPSSLSASVGDRVTITCRASQDISSYLNWYQQKPGKAPKLLIYYTSRLHSGVPSRFSGSGSGTDFTFTISSLQPEDIATYYCQQGNTLPYTFGQGTKVEIKRTVAAPSVFIFPPSDEQLKSGTASVVCLLNNFYPREAKVQWKVDNALQSGNSQESVTEQDSKDSTYSLSSTLTLSKADYEKHKVYACEVTHQGLSSPVTKSFNRGEC
As a reminder, the Kd is the free concentration of one partner at which half of the binding sites on the other are occupied at equilibrium, for simple one-to-one binding. As for B1, the “Relative FcgRIa-binding Activity” value in assay [1] is 0.0413 fold of IL6R-G1d/IL6R-L. Further, the figures for the “Relative FcgRIIaR-binding Activity” value in assay [2] and in [7] were 0.065 fold of IL6R-G1d/IL6R-L and 29.9 % of IL6R-G1d/IL6R-L, respectively. In addition, the “Relative FcgRIIaH-binding Activity” value in assay [3] is 0.012 fold of IL6R-G1d/IL6R-L. Also, the “Relative FcgRIIIaV-binding Activity” value in [4] is 0.005 fold of IL6R-G1d/IL6R-L. The values for the Kd in [5] and in [6] were 0.008 µM and 19 µM, respectively.

B2: IL6R-F648/IL6R-L (antibody, human IgG1, kappa)
heavy: B1 heavy
light: B1 light
For B2, the Kd in the assay with FcgRIa [8] stood at 0.008 µM; with FcgRIIaR [9], 19 µM; in the assay with FcgRIa [12], 0.008 µM; with FcgRIIaR [13] it was 19 µM. In addition, the “Relative FcgRIa-binding Activity” value in the assay with FcgRIa [8] and with FcgRIa [12] was 0.0413 KD(G1d)/KD(variant) each time. For the same molecule, the “Relative FcgRIIaR-binding Activity” value in the assay with FcgRIIaR [9] is 0.065 KD(G1d)/KD(variant); with FcgRIIaR [13], 0.065 KD(G1d)/KD(variant); with FcgRIIaR [16], 29.9 IL6R-G1d/IL6R-L=100; with FcgRIIaR [17] it was 30.7 IL6R-G1d/IL6R-L=100. The “Relative FcgRIIaH-binding Activity” value with FcgRIIaH [10] and with FcgRIIaH [14] was 0.012 KD(G1d)/KD(variant) each time. In addition, the “Relative FcgRIIIaV-binding Activity” value with FcgRIIIaV [11] and with FcgRIIIaV [15] was 0.005 KD(G1d)/KD(variant) throughout. In the assay with human complement C1q, the “Amount of C1q-binding when that for G1d is Defined as 100” value worked out at 21.5 G1d=100.
